Experimental data: the supplement of paper PMC10126150
Values marked as one replicate rest on one cluster of the flow cell; about a third of the high ones do not repeat.

system: ATP; test: switch fluorescence ratio, 500 uM ATP over buffer (Cy3 cluster intensity, sum of 5 cycles each) (fold (ratio)); higher = stronger signal-on switching upon ATP binding; sequences stand for … in TCGTCGGCAGCGTCAGATGTGTATAAGAGACAGTTTTTTTTTTTTTTTTTTTTTTTTT…TC; settings: aptamer strand: ATP DNA aptamer (quencher-CACCTGGGGGAGTATTGCGGAGGAAGG + anchor), 100 nM annealed; ATP concentration: 500 uM; one replicate
In short: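 Switching-strand clusters labelled with Cy3 on a modified Illumina MiSeq flow-cell were annealed to 100 nM quencher-labelled ATP aptamer, imaged in selection buffer, and re-imaged after 15 min with 500 uM ATP at 22 °C. This was done over five cycles with NaOH stripping and re-annealing in between. The fluorescence ratio is summed target-cycle over summed buffer-cycle Cy3 intensity per cluster, averaged per switch-domain sequence, excluding clusters outside 100-1000 RFU.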
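Further: ATP exposure 15 min at 22 °C before imaging.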

| Sequence | switch fluorescence ratio |
| --- | --- |
| ACATATCTCG | 0.994 |
| ACATATGGT | 1.07 |
| ACATATGTGT | 1.01 |
| ACATATGTTG | 0.974 |
| ACATCGTAAC | 1.04 |
| ACATCGTAGC | 0.998 |
| ACATCGTTGC | 1 |
| ACATCTACGT | 1.47 |
| ACATCTCCTG | 1.02 |
| ACATGCCATG | 1.03 |
| ACATGGGTTC | 1 |
| ACATGGTGCG | 1.04 |
| ACATGGTTGT | 1.01 |
| ACATGTGTT | 0.984 |
| ACATGTTTAT | 1.08 |
| ACATTATCTC | 1.01 |
| ACATTCTGAT | 1 |
| ACATTCTTCC | 1.78 |
| ACATTGGGAC | 1.1 |
| ACATTTCAGC | 1.03 |
| ACATTTTCCG | 0.987 |
| ACCAAACGCG | 1.47 |
| ACCAAGTCCG | 1.68 |
| ACCAATACAA | 1.1 |
| ACCAATCAGA | 1.02 |

| Sequence | switch fluorescence ratio |
| --- | --- |
| ACCAATGTGC | 1.06 |
| ACCACAACCT | 1.65 |
| ACCACAAGTA | 1.02 |
| ACCACAGATT | 1.02 |
| ACCACGGGGG | 3.98 |
| ACCACGGTGC | 2.56 |
| ACCACTACAG | 1.17 |
| ACCACTATCC | 1.06 |
| ACCACTCGGT | 0.988 |
| ACCACTGCTC | 1.14 |
| ACCACTTGT | 1.06 |
| ACCAGACAGC | 1.17 |
| ACCAGAGTCC | 1.1 |
| ACCAGCGGC | 0.962 |
| ACCAGCTTTA | 1.01 |
| ACCAGGAGAA | 1.04 |
| ACCAGGTTCA | 1.05 |
| ACCAGTATGA | 1.06 |
| ACCATAGCGG | 1.03 |
| ACCATAGTCG | 1.01 |
| ACCATGTCAT | 1.01 |
| ACCATGTGTT | 1.05 |
| ACCATTGCAG | 0.978 |
| ACCATTGTAT | 1.02 |
| ACCCATATGG | 1.05 |

| Sequence | switch fluorescence ratio |
| --- | --- |
| ACCCATTTCA | 1.06 |
| ACCCCCCGCC | 1.47 |
| ACCCCGTCCC | 1.11 |
| ACCCCTTGAG | 1.03 |
| ACCCGAGCT | 1.07 |
| ACCCGATAGC | 1.29 |
| ACCCGCCCGA | 1.36 |
| ACCCGGATTT | 1.04 |
| ACCCGGCTGG | 1.01 |
| ACCCGGGATG | 6.75 |
| ACCCGTAAAT | 1.12 |
| ACCCGTTTAT | 1 |
| ACCCTCGTTT | 0.972 |
| ACCCTGCACG | 1.15 |
| ACCCTGCAGT | 1.17 |
| ACCCTGGTCC | 1.07 |
| ACCCTGTAGA | 0.986 |
| ACCCTGTGTT | 1.02 |
| ACCCTGTTAT | 1.02 |
| ACCGAAAACC | 1.07 |
| ACCGACTTTG | 0.958 |
| ACCGATGAAT | 1.09 |
| ACCGCCTGGT | 0.993 |
| ACCGCGCGGC | 1 |
| ACCGGATCAG | 1.01 |

| Sequence | switch fluorescence ratio |
| --- | --- |
| ACCGGCCGTG | 1 |
| ACCGGCTGCC | 0.992 |
| ACCGGGGAGT | 1.01 |
| ACCGGTGTTA | 0.998 |
| ACCGGTTTGG | 0.975 |
| ACCGTGAGAT | 1.01 |
| ACCGTGCACG | 1.02 |
| ACCGTGCACT | 1.04 |
| ACCGTTTTAA | 1.02 |
| ACCTAGCGCT | 1.01 |
| ACCTAGTAGC | 1.03 |
| ACCTATAGAA | 1.05 |
| ACCTCAAATT | 1.04 |
| ACCTCCCGCT | 2.97 |
| ACCTCGAGCC | 1.08 |
| ACCTCGCGTA | 1.03 |
| ACCTCGTAAC | 1.07 |
| ACCTGATGGA | 0.995 |
| ACCTGGAAGT | 0.991 |
| ACCTGGTTTA | 1.03 |
| ACCTGTTAAT | 1.06 |
| ACCTTAAGCC | 1.1 |
| ACCTTACTAC | 2.21 |
| ACCTTAGATC | 1.1 |
| ACCTTCGAGT | 1.14 |

| Sequence | switch fluorescence ratio |
| --- | --- |
| ACCTTGACGT | 1.13 |
| ACCTTGGGTC | 0.982 |
| ACCTTGTAGG | 0.985 |
| ACCTTGTGGG | 1.01 |
| ACCTTTCTCA | 2.12 |
| ACCTTTGATT | 1.03 |
| ACGAAAAACC | 1.02 |
| ACGAACAGTG | 1.17 |
| ACGAACTATT | 1.29 |
| ACGAAGCCTG | 1.1 |
| ACGAATATTT | 1.05 |
| ACGAATGAAG | 0.969 |
| ACGACGCCGT | 1.18 |
| ACGACGCTTG | 1.44 |
| ACGACGTATG | 1.02 |
| ACGAGAACCG | 1.06 |
| ACGAGACTTA | 1.08 |
| ACGAGCCACA | 1.09 |
| ACGAGGTGCC | 0.97 |
| ACGAGTAAG | 0.987 |
| ACGATAAGCA | 1.05 |
| ACGATCAGGG | 1.03 |
| ACGATCGTAC | 1.02 |
| ACGATGACGT | 1.05 |
| ACGATGTTTG | 0.978 |

| Sequence | switch fluorescence ratio |
| --- | --- |
| ACGATTAGAT | 1 |
| ACGATTGAAA | 1.01 |
| ACGCAGGGTG | 1.14 |
| ACGCATGGAA | 2.95 |
| ACGCCGCTTG | 1.43 |
| ACGCCGGTTC | 1.08 |
| ACGCCTAGTT | 1.02 |
| ACGCGACGGG | 1.01 |
| ACGCGACGTT | 1.06 |
| ACGCGACTCT | 1.23 |
| ACGCGCATAT | 1.28 |
| ACGCGGCGCC | 1.04 |
| ACGCTAAGAC | 2 |
| ACGCTAAGGG | 1.08 |
| ACGCTCGGGC | 0.977 |
| ACGCTGCGTT | 1.04 |
| ACGGACAATA | 1.48 |
| ACGGACGC | 1.24 |
| ACGGAGATGC | 1.37 |
| ACGGAGATT | 1 |
| ACGGAGGGGC | 1.05 |
| ACGGAGTGAA | 1.04 |
| ACGGATAGCG | 0.98 |
| ACGGCATCAC | 1.3 |
| ACGGCCGGTA | 0.972 |

| Sequence | switch fluorescence ratio |
| --- | --- |
| ACGGCTCACA | 1.21 |
| ACGGCTCCGA | 1.07 |
| ACGGCTCCTT | 1.06 |
| ACGGCTGATA | 0.976 |
| ACGGGAAACT | 1.07 |
| ACGGGAATTA | 1.03 |
| ACGGGAGCAG | 1.06 |
| ACGGGCAAGA | 1.04 |
| ACGGGCCTT | 0.998 |
| ACGGGCGACT | 0.948 |
| ACGGGCGAGG | 0.983 |
| ACGGGCTCAC | 1.12 |
| ACGGGGCAGC | 1.03 |
| ACGGGGCGAA | 1.03 |
| ACGGGGGCCA | 0.98 |
| ACGGGTAAAA | 1.01 |
| ACGGGTCAGT | 1.04 |
| ACGGGTGAAC | 0.987 |
| ACGGGTGCCA | 0.979 |
| ACGGTACCCA | 1.42 |
| ACGGTGATTC | 1.07 |
| ACGGTGCAGT | 1 |
| ACGGTGTCAA | 1.04 |
| ACGGTTACTT | 1.23 |
| ACGGTTTATA | 1.05 |

| Sequence | switch fluorescence ratio |
| --- | --- |
| ACGTAAAGGC | 1.1 |
| ACGTAACGCA | 1.4 |
| ACGTAGCCTA | 1.13 |
| ACGTAGGATG | 0.931 |
| ACGTAGGTGT | 1.11 |
| ACGTATCCCA | 1.15 |
| ACGTCATACA | 1.24 |
| ACGTCCCCCA | 1.75 |
| ACGTCCTTAG | 1.02 |
| ACGTCGTCTT | 1.04 |
| ACGTCTATCG | 1.02 |
| ACGTGAGGGC | 1.03 |
| ACGTGCATGC | 1.02 |
| ACGTGCATTC | 1.65 |
| ACGTGCCATG | 0.967 |
| ACGTGCTGAA | 0.984 |
| ACGTGGGATG | 1.03 |
| ACGTGGTGGG | 0.984 |
| ACGTGGTTCC | 1.06 |
| ACGTGTATAC | 1.81 |
| ACGTGTGCAG | 1.16 |
| ACGTGTGTAT | 1.03 |
| ACGTGTTCTC | 1.01 |
| ACGTTACATA | 1.39 |
| ACGTTACGAA | 1.42 |
